Source: the supplement of paper PMC4604168 (melanoma cell lines)
The other results are listed elsewhere or left out. Most values come without repeats; read them as rough.

Columns and labels:
Assay in all cases: cell count relative to DMSO control; melanoma cells; higher = more viable cells
Conditions in all cases: library dose: low library concentration; 72 h
[1] = tested on: MZ2-MEL
[2] = tested on: MeWo
[3] = tested on: RPMI7951
[4] = tested on: RVH-421
[5] = tested on: SkMel28
[6] = tested on: SkMel30
[7] = tested on: SkMel5
[8] = tested on: UACC257
[9] = tested on: UACC62
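Note: cell number obtained by counting DAPI-stained nuclei in high-throughput microscope images with image analysis software, screen run in 1,536-well plates.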

Structure (SMILES) | cell count [1] [%] | cell count [2] [%] | cell count [3] [%] | cell count [4] [%] | cell count [5] [%] | cell count [6] [%] | cell count [7] [%] | cell count [8] [%] | cell count [9] [%]
NCC(=O)Nc1ccc(-n2nc(C(F)(F)F)cc2-c2ccc3c(ccc4ccccc43)c2)cc1 + O=S(=O)(c1ccccc1)N(CC(F)(F)F)c1ccc(C(O)(C(F)(F)F)C(F)(F)F)cc1 [T0901317] (first compound 1 µM, partner dose 1.4 µM) | 87.1 | 56.3 | 106 | 121 | 72 | 54 | 72.2 | 91.1 | 74.2
Cc1nc(Nc2ncc(C(=O)Nc3c(C)cccc3Cl)s2)cc(N2CCN(CCO)CC2)n1 [dasatanib] + Cc1cc([N+](=O)[O-])ccc1NS(=O)(=O)c1cc(Cl)ccc1Cl [FH535] (first compound 0.004 µM, partner dose 1 µM) | 65.6 | 78.1 | 68.2 | 64.3 | 80.4 | 103 | 71.5 | 75.1 | 68.5
C[C@]1(c2nc3c(C(N)=O)cccc3[nH]2)CCCN1 [Veliparib] + O=C1NC(=O)/C(=C/c2ccc(-c3ccc(F)cc3O)o2)S1 [AS252424] (first compound 1.4 µM, partner dose 1 µM) | 97.3 | 92.2 | 89.7 | 88.7 | 91 | 97.2 | 101 | 73.8 | 99.6
Cc1nc(Nc2ncc(C(=O)Nc3c(C)cccc3Cl)s2)cc(N2CCN(CCO)CC2)n1 [dasatanib] + COc1cc(N2CCC(N3CCN(C)CC3)CC2)ccc1Nc1ncc(Cl)c(Nc2ccccc2S(=O)(=O)C(C)C)n1 [NVP-TAE684] (first compound 0.004 µM, partner dose 0.08 µM) | 68.2 | 94.4 | 63 | 77.2 | 58.3 | 85.2 | 85.3 | 54.1 | 65.6
OCCn1cc(-c2cnc3nnn(Cc4ccc5ncccc5c4)c3n2)cn1 + Oc1cc(-c2nc(-c3ccccc3)[nH]c2-c2ccncc2)ccc1Cl [L779450] (first compound 1 µM, partner dose 0.2 µM) | 84.3 | 105 | 99 | 108 | 107 | 88.9 | 109 | 105 | 86.6
CO[C@@H]1[C@H](N(C)C(=O)c2ccccc2)C[C@H]2O[C@]1(C)n1c3ccccc3c3c4c(c5c6ccccc6n2c5c31)C(=O)NC4 [Midostaurin] + COc1cc(N2CCC(N3CCN(C)CC3)CC2)ccc1Nc1ncc(Cl)c(Nc2ccccc2S(=O)(=O)C(C)C)n1 [NVP-TAE684] (first compound 0.08 µM, partner dose 0.08 µM) | 87 | 84.4 | 83 | 93.3 | 105 | 93.4 | 88.8 | 75.3 | 108
C=CCn1c(=O)c2cnc(Nc3ccc(N4CCN(C)CC4)cc3)nc2n1-c1cccc(C(C)(C)O)n1 + O=C1NC(=O)/C(=C/c2ccc(-c3ccc(F)cc3O)o2)S1 [AS252424] (first compound 0.02 µM, partner dose 1 µM) | 86.8 | 107 | 100 | 94.2 | 87 | 85.5 | 82.3 | 84.9 | 97.6
C=CCn1c(=O)c2cnc(Nc3ccc(N4CCN(C)CC4)cc3)nc2n1-c1cccc(C(C)(C)O)n1 + COc1ccc2c(c1)CCC1C2CCC2(C)C(NCCCCCCN3C(=O)C=CC3=O)CCC12 [U73122] (first compound 0.02 µM, partner dose 0.4 µM) | 97.1 | 91.8 | 105 | 94.4 | 95.9 | 92.6 | 90.8 | 76.7 | 82.8
NCC(=O)Nc1ccc(-n2nc(C(F)(F)F)cc2-c2ccc3c(ccc4ccccc43)c2)cc1 + COc1ccc2c(c1)CCC1C2CCC2(C)C(NCCCCCCN3C(=O)C=CC3=O)CCC12 [U73122] (first compound 1 µM, partner dose 0.4 µM) | 88.5 | 53 | 92.1 | 66.3 | 67.5 | 45.7 | 66.3 | 88.2 | 83.6
OCCn1cc(-c2cnc3nnn(Cc4ccc5ncccc5c4)c3n2)cn1 + O=C(O)C(=O)Nc1sc2c(c1C(=O)O)CCNC2 [TCS401] (first compound 1 µM, partner dose 1.66667 µM) | 96.4 | 105 | 91.8 | 6.1 | 93 | 95.6 | 86.4 | 97 | 92.8
CN(C)S(=O)(=O)c1ccc2c(c1)/C(=C/c1cc3c([nH]1)CCCC3)C(=O)N2 + COC(=O)c1sccc1S(=O)(=O)Nc1ccc(Nc2ccccc2)cc1OC [GSK0660] (first compound 0.4 µM, partner dose 1 µM) | 101 | 89.9 | 95.4 | 92.5 | 93.1 | 87.4 | 90.4 | 95.9 | 88.6
CN(C)S(=O)(=O)c1ccc2c(c1)/C(=C/c1cc3c([nH]1)CCCC3)C(=O)N2 + COc1cc(N2CCC(N3CCN(C)CC3)CC2)ccc1Nc1ncc(Cl)c(Nc2ccccc2S(=O)(=O)C(C)C)n1 [NVP-TAE684] (first compound 0.4 µM, partner dose 0.08 µM) | 99.6 | 77.8 | 94.7 | 117 | 97.7 | 77.5 | 74.6 | 81.9 | 117
CO[C@@H]1[C@H](N(C)C(=O)c2ccccc2)C[C@H]2O[C@]1(C)n1c3ccccc3c3c4c(c5c6ccccc6n2c5c31)C(=O)NC4 [Midostaurin] + O=S(=O)(c1ccccc1)N(CC(F)(F)F)c1ccc(C(O)(C(F)(F)F)C(F)(F)F)cc1 [T0901317] (first compound 0.08 µM, partner dose 1.4 µM) | 92.3 | 75.3 | 85.4 | 79.5 | 93 | 91.8 | 72.3 | 86.8 | 81.8
CO[C@@H]1[C@H](N(C)C(=O)c2ccccc2)C[C@H]2O[C@]1(C)n1c3ccccc3c3c4c(c5c6ccccc6n2c5c31)C(=O)NC4 [Midostaurin] + COC(=O)c1sccc1S(=O)(=O)Nc1ccc(Nc2ccccc2)cc1OC [GSK0660] (first compound 0.08 µM, partner dose 1 µM) | 90.9 | 92.4 | 85.6 | 90.1 | 104 | 98.3 | 83.6 | 81.5 | 97.3
C[C@]1(c2nc3c(C(N)=O)cccc3[nH]2)CCCN1 [Veliparib] + CCN(CC)CCCCNc1ncc2cc(-c3cc(OC)cc(OC)c3)c(NC(=O)NC(C)(C)C)nc2n1 [PD173074] (first compound 1.4 µM, partner dose 0.1 µM) | 101 | 101 | 120 | 103 | 96.7 | 109 | 94.7 | 90.7 | 77.8
NC(=O)Nc1cc(-c2cccc(F)c2)sc1C(=O)N[C@H]1CCCNC1 + Oc1nc(-c2ccc(C(F)(F)F)cc2)nc2c1CSCC2 [XAV939] (first compound 0.02 µM, partner dose 2 µM) | 102 | 102 | 88.8 | 100 | 90.2 | 135 | 78.6 | 98.9 | 94.7
C=CCn1c(=O)c2cnc(Nc3ccc(N4CCN(C)CC4)cc3)nc2n1-c1cccc(C(C)(C)O)n1 + Cn1cc(/C=C2\C(=O)Nc3cccnc32)c2ccccc21 [GW441756] (first compound 0.02 µM, partner dose 0.4 µM) | 98.4 | 95.6 | 91.4 | 96.8 | 91.9 | 89.1 | 78.7 | 81.4 | 81
NC(=O)Nc1cc(-c2cccc(F)c2)sc1C(=O)N[C@H]1CCCNC1 + COC(=O)c1sccc1S(=O)(=O)Nc1ccc(Nc2ccccc2)cc1OC [GSK0660] (first compound 0.02 µM, partner dose 1 µM) | 98.1 | 99.5 | 111 | 117 | 100 | 139 | 121 | 116 | 102
OCCn1cc(-c2cnc3nnn(Cc4ccc5ncccc5c4)c3n2)cn1 + N#Cc1c(O)c2c(-c3ccc(-c4ccccc4O)cc3)csc2[nH]c1=O [A769662] (first compound 1 µM, partner dose 2 µM) | 98.2 | 102 | 99.8 | 105 | 107 | 119 | 88.3 | 82.9 | 95.7
NCC(=O)Nc1ccc(-n2nc(C(F)(F)F)cc2-c2ccc3c(ccc4ccccc43)c2)cc1 + CCCCCCCCCCCC1=C(O)C(=O)C=C(O)C1=O [Embelin] (first compound 1 µM, partner dose 1.2 µM) | 104 | 103 | 117 | 106 | 88.3 | 111 | 98.8 | 109 | 94.1
C[C@]1(c2nc3c(C(N)=O)cccc3[nH]2)CCCN1 [Veliparib] + COc1cc(N2CCC(N3CCN(C)CC3)CC2)ccc1Nc1ncc(Cl)c(Nc2ccccc2S(=O)(=O)C(C)C)n1 [NVP-TAE684] (first compound 1.4 µM, partner dose 0.08 µM) | 99.7 | 85.5 | 114 | 83.8 | 67.6 | 104 | 82.1 | 82.8 | 62.1
NC(=O)Nc1cc(-c2cccc(F)c2)sc1C(=O)N[C@H]1CCCNC1 + Cn1cc(/C=C2\C(=O)Nc3cccnc32)c2ccccc21 [GW441756] (first compound 0.02 µM, partner dose 0.4 µM) | 101 | 101 | 83.8 | 132 | 108 | 106 | 99.9 | 131 | 113
NC(=O)Nc1cc(-c2cccc(F)c2)sc1C(=O)N[C@H]1CCCNC1 + O=C(O)C(=O)Nc1sc2c(c1C(=O)O)CCNC2 [TCS401] (first compound 0.02 µM, partner dose 1.66667 µM) | 95.9 | 105 | 91.7 | 118 | 91.8 | 103 | 94.4 | 104 | 94.5
